Measurements reported in the supplement of paper PMC10126150.
Sequences with one replicate were seen in a single cluster, so their values are uncertain.

System: ATP
Assay: switch fluorescence ratio, 500 uM ATP over buffer (Cy3 cluster intensity, sum of 5 cycles each) (fold (ratio)); higher = stronger signal-on switching upon ATP binding; sequences stand for … in TCGTCGGCAGCGTCAGATGTGTATAAGAGACAGTTTTTTTTTTTTTTTTTTTTTTTTT…TC
Conditions: aptamer strand: ATP DNA aptamer (quencher-CACCTGGGGGAGTATTGCGGAGGAAGG + anchor), 100 nM annealed; ATP concentration: 500 uM; one replicate
Outline: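 Values give the fluorescence ratio for each switch-domain sequence, averaged from per-cluster ratios of summed target-cycle to summed buffer-cycle Cy3 intensity. The Cy3-labelled switching-strand clusters sat on a modified Illumina MiSeq flow-cell, were annealed to 100 nM quencher-labelled ATP aptamer, and were imaged in selection buffer, then after 15 min with 500 uM ATP at 22 °C. Five cycles ran with NaOH stripping and re-annealing between them, and clusters outside 100-1000 RFU were excluded.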
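Also: ATP exposure 15 min at 22 °C before imaging.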

Sequence	switch fluorescence ratio
GCTGGTGATA	1.02
AATGCGGCCG	0.999
GCACAAGTCT	1.03
GGCTGAACCT	1.61
CATAAGCCAT	0.998
GCCCCGACCG	1.2
GAAAAGGCGT	1.03
TTATAATGCG	0.98
TACCCAGAC	1.24
TCGGATAGCG	0.958
CGTCTCCATT	0.98
GGACTAATTG	1.05
CCTTAGGCAG	1.24
GCTAGATTGT	0.986
GGTGTCTTCC	1.1
AGGCCGTCAC	0.998
ACGCGGAATG	0.962
CTATTGATTC	0.995
CAAGGAATTA	0.987
TTTTATTAGC	0.981
TGCCAGGCGG	0.976
TTATCGCCGG	0.924
TATGATAGTG	0.967

Sequence	switch fluorescence ratio
GATTAAGTAA	0.975
CTGTAGCTCA	2.67
TCGGCCTCAT	1.04
ATCCGTATTG	1.01
TGCGTCACAG	1.02
GCTCGTCTCG	1.04
AAACCGTTG	1.03
TAGACCGAAA	1.06
TTATGATA	1.01
AAGCCTAGGA	1.02
AGGTAGGCTT	0.957
ATCGGAGCGA	1.84
TGACTAAGCT	1.05
TTCATGTTCT	0.979
ACACGGCTGG	1.02
TACCATGATG	0.96
CTCTGTGTAT	1.13
GCAGTGCCCC	1.23
GTTGGCCTTC	1
TCTAAACATG	1
GGGTATCGCC	0.993
CCCTATTTGT	0.974
GCGCCAGTTA	0.973

Sequence	switch fluorescence ratio
ATTGCACTTA	1.03
CTGGATTTTT	1.04
AAAAGCCCGC	1.12
ACGGGACGCG	1.08
TCCTAGGCAC	2.32
GGTACAGAAG	1.03
AACATGATAG	1
TCTTGCCGTA	0.987
CATCGATGGG	1.01
GATGTGAGTG	0.977
GTTTCTTATC	1.02
ATACATTTAG	1.02
ACTAATACAC	1.14
CGCCGGCGT	1.03
AGAGGGCA	1.02
CGCGGCCGGG	0.996
TCGATGAAAA	0.982
CGCAGATCGC	1.37
TAGATGTAGA	1.04
ATGCGTAGGA	1
CATTTCGCTT	1.03
AACAGCGGTA	1.05
AACTAGGTTA	0.992

Sequence	switch fluorescence ratio
GCTAGATAAG	0.991
TTTTCGAACT	1.02
CAGTACGTTA	1.15
GTGTGTATC	1.03
TCGGTTGTCG	0.961
AAGCATACGG	1.33
CACCCGATGA	1.02
CAGGTGTTT	1.94
GGGGCTCGTA	1.05
ACTGGGCGGC	0.962
AAACACCGCT	1.13
TCAGGGTGTA	1.59
TGCAATGGTT	1.1
CCAAGTTGGA	1.03
CCGTCGTGT	1.09
AAGTTGTTTT	1.02
TCTGGCTTAT	1.04
TATTCGACGG	1.05
GCGACTGGCC	1.09
TGATTTGTAG	1.01
CTATGAGAGT	0.991
CCTTATTGCC	1.01
GAGACATGGG	0.981

Sequence	switch fluorescence ratio
TGGAGACGTG	0.998
TTCGTGGCTG	0.987
GGTGTCATTT	1.06
TACTAGTATG	1.01
GATTTAGTAG	1.03
ACTAAACCTG	1.47
ATAGTAACAG	0.963
GACGTAGTGT	0.99
ACCTATCGTT	1.03
CTTGTATATA	0.989
ATTAAGATAG	0.995
CGATAGGGGA	1
ACTTTGAGAG	0.957
TGGGGTGACT	0.986
AGACGATGTC	0.986
GTAAGGACGG	1.01
CATGTTGACA	0.991
TGTGTAACGT	0.984
TAATGGTGTA	1.01
ATGCCTTCGG	0.983
CATGCTACCA	1.07
TGAACCCTTT	0.95
GTTATCGATG	1.01

Sequence	switch fluorescence ratio
GGCCTCCGTC	1.83
CACCCGTGCA	1.11
GTCTAAAAAA	1.1
GGGTAACCGT	0.965
TTTCAGCG	1.05
TACTTGGGGC	0.934
TTTTCACTGC	1.04
GTGTTGACTA	1.11
GAAGTCATTC	0.984
CAGACATGGC	1.12
GGGTGACTAC	1.05
AGTGTTCCCC	1.02
TCAGACGGC	0.975
CGTGGAAAT	1.01
CTACTCTAT	1.13
ATCATCTCGT	1.02
TGAGTCACAG	1.02
AAAAGCATCC	1.17
AGTAACCCTT	1.11
CGCCGTTGAA	0.964
TTATTGA	0.968
CTCCTCGTAG	1.28
GACTCCTATG	1.01

Sequence	switch fluorescence ratio
TCCAACGAAG	1.03
GTGGACCTTT	0.979
TCCAGGTTTC	0.958
CCATGAGTTA	1.01
CTAGGATGT	0.943
GCAGGGACGG	0.995
CGCGGTCCGT	1.02
AGGTATTTTA	0.992
CGAGAAAGGT	1.1
TAGAGAAT	1.05
TCCCCATTGG	1.26
TTGCGTGGT	1.03
CGAGCATCTC	0.988
AGGGAGACGA	1.07
TAGACAAAGA	0.98
CAGTTTGGTG	0.962
CATCACTGTT	1.01
TGATGGAGCA	0.963
GACATTTGAG	0.984
TGCGTAAGG	0.982
